# In the supplement of paper PMC11417369:
# ± gives the standard deviation of the averaged measurements. Some of the results follow.
# Tested on: PfAP2-G AP2 domain (GST-tagged)
# Test: gcPBM binding intensity (ln(normalized median fluorescence intensity)); higher = stronger DNA binding
# In short: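 DNA-binding domains from P. falciparum, fused to GST and produced in E. coli, were put on an Agilent 4 × 180k double-stranded probe array for 1 h in 1× PBS holding 1% milk, 0.2 mg/ml BSA, 0.5% salmon testes DNA and 0.03% Triton X-100. Probes were primer-extended, 36 bp long and drawn from intergenic genomic regions, with negative controls included. After Alexa488 anti-GST antibody detection and a 488 nm scan, binding intensity was set as the highest Masliner-normalised natural-log median intensity across replicate spots of either probe orientation.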
row,Sequence,gcPBM binding intensity (ln)
1,GATTCATTTCATAATACACACAACAAATATTTCAAA [CACACA_site120],10.1 ± 0.3
2,ATAAAAAAAAGACACACACACATATATATATATATA [CACACA_site3073],10 ± 0.17
3,TCAACACACGTGGAATGTACTTTAGTATAAGAATTC [XGTACX_site7842],10.9 ± 0.47
4,TAAATATATTTCATGACATGCAACTTGTTTTTTTGT [TGCATGCA_site456],9.79 ± 0.17
5,ATATATATATTTTATGCATGTTCATTTTCTATATTT [TGCATGCA_site442],9.7 ± 0.19
6,ATAATATATACGTGTGTGCACATGACAAAAGCATAT,10.6 ± 0.18
7,GTTAATGTGGTTACTTGTACATATTAACGTCTTTTT [XGTACX_site2617],11 ± 0.61
8,AAAAAAAAAATATACACACACATATATATATATATA [CACACA_site3404],9.96 ± 0.37
9,TATATATATATATAAACACACATAAATATAAATATA [CACACA_site1121],10.04 ± 0.092
10,TCTTTTACAAAAGCTATAACATTCACCACATTATAA [GTGCAC_negctrl_site133],10.01 ± 0.028
11,ACCACATAAAACAAATGTACTTGAAATATATGCGTA [XGTACX_site5155],10.9 ± 0.61
12,ATGTATATGATTAAATGTACGTAAACAAATTTGTAA [XGTACX_site8174],11.4 ± 1
13,CAAAGGGAAATTAACACACACATATTTATATTTATA [CACACA_site7202],9.77 ± 0.085
14,TATTAATAAATTTATAAAACAGGTATATATATATAT [CACACA_negctrl_site615],10.1 ± 0.41
15,AAGAAAACTTAAAATAAAAGCATATTTTATCTTACA [TGCATGCA_negctrl_site366],9.57 ± 0.085
16,TGCAGTCTGGAGAAGAGTACATAGTATCTGGTAGCT [XGTACX_site2021],11.3 ± 0.78
17,ATATATATATATATATGTACACACATCAATCATATT [XGTACX_site4005],11.4 ± 0.88
18,AGAGTACAAGTAAATACACACATATAGATGAAAATA [CACACA_site6635],10.8 ± 0.57
19,ATCTATATAATATATACACACAAATATACAAAAAAA [CACACA_site1013],10 ± 0.11
20,TACATGCATTTCTCATGTACATAATTTTCCCATATT [XGTACX_site5158],11 ± 0.47
21,ATAAATTAAAGACACACACACATCTGGATACCCCTA [CACACA_site7546],11.1 ± 0.65
22,TTATATTATATATATAGTACACATGTAATATTTCAA [XGTACX_site1791],11.1 ± 0.76
23,TATTGTAGAGGCAAAAGTACACATTTAATAATTTCC [XGTACX_site1151],11.4 ± 0.73

row,Sequence,gcPBM binding intensity (ln)
1,TAAATATGCTCACAGATGCACTAACACATTTTTATA [GTGCAC_site9997],10.01 ± 0.035
2,TTTTATACATAAATGTGTACGTATATATAATGAATT [XGTACX_site2762],11.7 ± 1
3,GTTTATATTAAACAAACACACACATATATATATATA [CACACA_site8749],10.1 ± 0.39
4,TCCTTATATGGGCACACACACACAATAAAATGAAAA [CACACA_site1030],10.8 ± 0.66
5,AAAATTAGGTATATATGTACATATATAAATATATAT [XGTACX_site3555],11.1 ± 0.65
6,AACCATTATTTCTCTACACACATTTATGTCATTTAC [CACACA_site1499],10.09 ± 0.021
7,TATGCTACAAGGAGAACACACAATTGCCACTTTTGG [CACACA_site2166],10.07 ± 0.028
8,TTTTTTAATTAGTACAAACACACATATACAGACAAA [CACACA_site2564],11.2 ± 0.79
9,TGTTATATATGTAATTGTACACTTATACAAAATTAT [XGTACX_site6350],11.2 ± 0.72
10,AATAGAACTATTACACGTACAGAACATGAATTAGTT [XGTACX_site7518],11.4 ± 0.91
11,ATTTAGAATGCGTATACACACATATATAGATTTGCT [CACACA_site626],10.09 ± 0.078
12,AAAAAAATTAGACACACACACACATATAAATATGTA [CACACA_site6618],9.94 ± 0.042
13,CAAAATATAACATCATCACACACATATACTTTATAT [CACACA_site8292],9.88 ± 0.13
14,ATTTAAAAATAAAGAACACACATATGTAAAATATAT [CACACA_site3754],10.03 ± 0.071
15,TATGTTTGTGTATATATTTATTTTTATGTAATTATA [GTGCAC_negctrl_site219],9.91 ± 0.26
16,TTATTAATATATAAATGTACATATACAATACATAAA [XGTACX_site5571],11 ± 0.61
17,TATTTAAGAGTATGAACACACATCATACACATATAA [CACACA_site3617],10.11 ± 0.071
18,ATTCAAATATTAAAAAGTACAAAAAAAAAACAAAAA [XGTACX_site1174],11.2 ± 0.75
19,ATATAATTATTGATATGTACATATTTGTTCTAGTTT [XGTACX_site3012],11.1 ± 0.64
20,ACATTAAAATATGATTGTACATTTTATTATATTATA [XGTACX_site912],10.8 ± 0.4
21,ACAACACTATATTACACATGCATTAAGAGAGTGAAC [TGCATGCA_site124],10.1 ± 0.11
22,ACCTGTTCATATGATCGTACACGTCAGTTTATATGA [XGTACX_site3869],11.1 ± 0.49
23,TATTTTGAGAATAAATGTACGAATTTTATATTTAAA [XGTACX_site1336],11 ± 0.77

row,Sequence,gcPBM binding intensity (ln)
1,CTATCATATTTATGCACACAAAAATAATTAATTCGT [CACACA_site2614],10.2 ± 0.23
2,TACAAAATGGGGAACACACACATATATAAATAAATA [CACACA_site7751],10.6 ± 0.49
3,TAAAATAAAAATTAAAGTACATATGTATATATATAT [XGTACX_site3984],11.1 ± 0.88
4,AATCCTTACGGACACACACACACGAATAAATAAAAA [CACACA_site4422],11.2 ± 0.92
5,GAGTATTCAAGTATTAGTACATATTATATAATAAAT [XGTACX_site7630],10.9 ± 0.61
6,ATAATTATTTTAGAAACACACAAATTAGAAAAAACA [CACACA_site3636],10.2 ± 0.19
7,AGAGGATCATAGTTATGTACACATATTTAACATAAA [XGTACX_site7232],11.5 ± 0.91
8,TCTTCATTTTTATGTGCATGTAAAATTTTTTTTTTT [TGCATGCA_site963],10.2 ± 0.19
9,GACAATAAAAAGAAAAGTACATATATAAATTAACCA [XGTACX_site7858],11.3 ± 0.88
10,AAATATAAAAGTATATGTACATATATATATATATAT [XGTACX_site7446],11.2 ± 0.64
11,AATAAATAGATATATACACACATATATCTATAATAT [CACACA_site6557],9.74 ± 0.11
12,CATATTCCCCCCCACACACACACACCCATACATACC [CACACA_site2303],11.7 ± 0.71
13,CGTGTGTCCCCCTTAATCATCCAATCGTTCATTTTG [CACACA_negctrl_site1008],11.4 ± 1
14,TATATAATGGTAAAAACACACAAATATGAAGATGTT [CACACA_site722],9.87 ± 0.16
15,ATATTTATTATATAATGTACAAAAAAAAAAAAAAAA [XGTACX_site629],10.6 ± 0.62
16,TTTTTTTCTAATTATGCACACATATCAAAATATTCA [CACACA_site8886],10.1 ± 0.25
17,AATATAAGTTTATTAGTGCACAGATAAATATATATT [GTGCAC_site9784],10.3 ± 0.3
18,ATGTATGTTTTTTTTTTATTGTTCAAAAAGTTGAAG [CACACA_negctrl_site1276],10.2 ± 0.18
19,ATTTTTTATATTAATTGTACATTGTATATATATATA [XGTACX_site8702],10.7 ± 0.26
20,TTACTTAAATATAAGTGTCCTCAAAAAAAAAAAAAA [XGTACX_site460],11.1 ± 0.93
21,TAGCGCATAAAAAAAAAAAAATATATACTAATAAAT [GTGCAC_negctrl_site276],9.57 ± 0.071
22,AAATATATTATTATCTTATCAATTAAAAGAATAAAC [CACACA_negctrl_site779],9.91 ± 0.27
23,TTTTTATAAAAATTATTAAAAAAATTATTTATAGCT [CACACA_negctrl_site265],9.54 ± 0.12

row,Sequence,gcPBM binding intensity (ln)
1,AAAAACTAATCTTTAACATGCAACCGTTTATACATA [TGCATGCA_site363],9.875 ± 0.035
2,TTTTTTTGAACATATACACACTCTAAACTTATACAT [CACACA_site3917],10.12 ± 0.092
3,AAAGGTTTATATGATACACACATAAGTGATCAGGTT [CACACA_site190],10.05 ± 0.021
4,TGAGTTACATACTAATGTACACAACAAAAAAAAAAA [XGTACX_site2390],11.2 ± 0.79
5,TAATTTATGACACGCGCACACATATATATATAGTAA [CACACA_site4249],10.6 ± 0.42
6,GGTATACGCAAGTATACACACATATATATATATATA [CACACA_site3240],10.1 ± 0.28
7,AATAAAATAAAATACACACATACATACATACAAATG [CACACA_site2438],10.2 ± 0.12
8,AAAAATTATGGACACACACACATATATATATATATT [CACACA_site4717],11.2 ± 0.82
9,TACCAATGCATAACGGTGCAAAAAAATAAGGAATAA,10.1 ± 0.12
10,ATGCATATAACTACGTGTACAAATATACACAAATAC [XGTACX_site8811],11.4 ± 0.86
11,ACTGTAAAAGGATTTACACACATATTTACATTTACA [CACACA_site519],10.01 ± 0.021
12,ACCCATAAAAAGGATACACACACACCCACCCATATA [CACACA_site8205],10.6 ± 0.34
13,ATATATATATTTGTATGTACATATATATATTCGTAT [XGTACX_site1640],11.1 ± 0.51
14,TTTCCTTATTAAAACACACAAATACATTATTTAATC [CACACA_site7080],9.875 ± 0.035
15,GAGCATTACCCATATACACACATATATATAAACCTA [CACACA_site2737],10.2 ± 0.13
16,ACATTTTTTTCATATCGTACATATTATAATATTTTC [XGTACX_site6524],10.9 ± 0.52
17,AAAAAAAAAAAAGGAGGTACACAATTTTATATATGC [XGTACX_site5296],11.3 ± 0.76
18,ACAAGTCAGGCAAAAACATGCATTATTTGAACATTA [TGCATGCA_site864],9.95 ± 0.24
19,GTACGATAAAAAATTGGACAAAAAAAAAAAAAAAAT [XGTACX_negctrl_site158],10.8 ± 0.38
20,ATTTCATAAATTAAACGTACATAATACACACACATG [XGTACX_site4155],11.5 ± 0.67
